# Results published in PubChem BioAssay AID1468 (National Center for Advancing Translational Sciences (NCATS), 2008).
# The whole screen tested about 280,000 compounds, of which about 1,100 (0.39%) were called active. Inconclusive results, whose numbers are uncertain, are shown with a selection of clear calls. Calls follow the shape of the dose curve; as a rule, active = well fitted inhibition curve with a large enough effect; inconclusive = small, poorly fitted or top-dose-only effect, or effect the other way; inactive = flat fitted curve, though single readings scatter. No potency is given beside an inconclusive call; the fits are too rough.
# Target: Microtubule-associated protein tau (Homo sapiens) (UniProt P10636)
# UniProt P10636, sequence (P10636 whole entry, looked up): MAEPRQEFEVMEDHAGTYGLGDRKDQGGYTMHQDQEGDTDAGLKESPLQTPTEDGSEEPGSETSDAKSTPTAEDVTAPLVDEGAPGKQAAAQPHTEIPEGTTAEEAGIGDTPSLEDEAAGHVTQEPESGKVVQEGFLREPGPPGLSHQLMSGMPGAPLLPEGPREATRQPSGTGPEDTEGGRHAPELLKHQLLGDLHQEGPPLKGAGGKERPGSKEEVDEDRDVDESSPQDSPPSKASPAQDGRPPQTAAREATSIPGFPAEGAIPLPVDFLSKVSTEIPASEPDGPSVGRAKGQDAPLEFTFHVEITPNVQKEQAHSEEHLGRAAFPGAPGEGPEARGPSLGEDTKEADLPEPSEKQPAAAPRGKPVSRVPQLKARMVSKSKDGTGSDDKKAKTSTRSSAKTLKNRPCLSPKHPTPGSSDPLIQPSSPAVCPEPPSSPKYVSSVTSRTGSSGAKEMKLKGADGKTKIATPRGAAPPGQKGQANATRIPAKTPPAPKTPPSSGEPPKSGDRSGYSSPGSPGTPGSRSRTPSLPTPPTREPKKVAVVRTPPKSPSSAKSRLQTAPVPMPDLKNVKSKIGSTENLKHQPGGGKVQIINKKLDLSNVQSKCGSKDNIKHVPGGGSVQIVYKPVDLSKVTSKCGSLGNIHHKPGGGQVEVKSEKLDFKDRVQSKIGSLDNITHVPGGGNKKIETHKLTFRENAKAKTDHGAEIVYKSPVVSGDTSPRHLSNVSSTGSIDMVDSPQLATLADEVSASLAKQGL
# Assay: qHTS for Inhibitors of Tau Fibril Formation, Fluorescence Polarization; also: nearly all actives have a fitted effect of over 55% in size
# Conditions: K18 P301L tau heparin fibrillization, Alexa594 FP, 6 h; series mostly up to 57.7 µM; activity, negative = inhibition: at the top concentration
# Procedure, shortened: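 Quantitative HTS format: compounds meet 15 uM recombinant K18 P301L tau and Alexa 594-tau tracer in 100 mM sodium acetate pH 7; 20 uM heparin triggers fibrillization at 37 C over 6 hr; FP gives the signal.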
# % is scaled to controls: 0 for no effect and ±100 for the full control effect; potency is read from the fitted curve at half-maximal effect; tags tell the direction and shape of the fitted curve.
Compound,Potency,"activity, negative = inhibition"
COc1ccccc1CNC(=O)c1cc2c(-c3ccc(Cl)cc3)nn(C)c2s1,"inconclusive [inhibitor, partial curve]",–
Cc1nn2c(CN(C(=O)COc3ccccc3)c3ccccc3)nnc2c2ccccc12,–,inactive: -5.22%
CCCCOc1ccc(CONS(=O)(=O)c2ccc(NC(C)=O)cc2)cc1Cl,"inconclusive [inhibitor, partial curve]",–
Nc1nnc(N2CCCCC2)s1,–,inactive: -13.1%
O=C(NC1CC1)C1=C[C@H](c2ccc(C(F)(F)F)cc2)C[C@H](OCc2ccc(CO)cc2)O1,"inconclusive [activator, partial curve, poor fit]",–
CC1=NN(c2ccccc2)C(=O)/C1=C\c1c(C)[nH]n(-c2ccccc2)c1=O,–,inactive: 0.394%
O=C(Cc1ccc(Cl)cc1)NNC(=S)NC(=O)c1cccs1,–,inactive: 0.756%
COC(=O)c1cc(NC(=O)c2sc3ccccc3c2Cl)cc(C(=O)OC)c1,"inconclusive [inhibitor, partial curve]",–
CCn1cc(-c2cc(C(=O)O)c3ccccc3n2)cn1,"inconclusive [inhibitor, full curve, poor fit]",–
O=C(NCC(c1cccnc1)N1CCN(Cc2ccccc2)CC1)C(=O)Nc1cccc(Cl)c1 (centres undefined),"inconclusive [inhibitor, single point]",–
COc1cccc(NC(=O)c2cc3c(-c4ccc(Cl)cc4)nn(C)c3s2)c1,active: 15.8 µM,–
COc1cc2c(cc1OC)C1(Nc3c-2c(C)nn3-c2ccccc2)C(=O)Nc2ccccc21 (centres undefined),"inconclusive [activator, partial curve]",–
CCN(CC)S(=O)(=O)c1cccc(NC(=O)C2SC(=Nc3ccc(C)cc3C)C(C(=O)NCC3CCCO3)=C2N)c1 (centres undefined),"inconclusive [inhibitor, single point]",–
COc1cc2c(cc1OC)C(C)N(C(=S)Nc1ccccc1)CC2 (centres undefined),"inconclusive [inhibitor, single point]",–
CNC(=O)COC(=O)/C=C/c1cn(-c2ccccc2)nc1-c1ccc2c(c1)OCCO2,"inconclusive [inhibitor, partial curve]",–
CC(C)CCOc1ccc(Cn2c(=O)sc3ccccc32)cc1,–,inactive: -16.2%
Cc1cc2cc(CNC(=O)c3ccc(C)c([N+](=O)[O-])c3)ccc2[nH]1,"inconclusive [activator, single point]",–
Cc1ccccc1Nc1nc(N)nc(CN2CCN(Cc3ccc4c(c3)OCO4)CC2)n1,–,inactive: -4.72%
N#Cc1ccsc1NC(=O)CN1CCN(c2ccccc2O)CC1,"inconclusive [activator, single point]",–
CCOc1ccccc1NC(=O)Nc1ccc2nc(N3CCN(C)CC3)cc(C)c2c1,–,inactive: 5.47%
COc1ccc(OC2C=CC(c3ccccc3)OC2CO)c(C(C)=O)c1 (centres undefined),–,inactive: -11.9% [at 11.6 µM]
Cc1ccc(C(=O)N(Nc2nc3ccccc3s2)C(=O)c2ccc(C)cc2)cc1,"inconclusive [inhibitor, single point]",–
Fc1ccc(NC(=S)Nc2ccccc2Cl)cc1,–,inactive: 2.95%

Compound,Potency,"activity, negative = inhibition"
O=C(NNC(=O)c1cc2cc(OC(F)(F)F)ccc2[nH]1)c1cccc(C(F)(F)F)c1,"inconclusive [inhibitor, partial curve]",–
CCOc1ccc(S(=O)(=O)NCCc2csc3nc(-c4ccc(OC)c(OC)c4)nn23)cc1,"inconclusive [inhibitor, single point]",–
Cc1ccc(C(=O)N/C(=C/c2ccco2)C(=O)Nc2cccc(C)c2)cc1,–,inactive: -1.5%
CCOCCc1nn2c(=O)cc(COC(=O)COc3ccc(C)c(C)c3)nc2s1,–,inactive: 3.89%
COc1ccc(Cl)cc1NC(=O)N1CCC(C)CC1,"inconclusive [inhibitor, full curve, poor fit]",–
CC(C)c1ccc(NC(=O)c2ccc3oc(=O)c(S(=O)(=O)c4ccc(F)cc4)cc3c2)cc1,"inconclusive [inhibitor, partial curve]",–
COc1ccccc1OC(=O)CN1C(=O)c2ccccc2C1=O,"inconclusive [inhibitor, single point]",–
CCCOc1ccc(Cc2c(COCC)[nH]c(=S)[nH]c2=O)cc1,–,inactive: -15.9%
Cc1ccc(S(=O)(=O)N(C)c2ccc(C(=O)N3CCCCC3)cc2)cc1,–,inactive: -10.3%
O=C(O)CCC(=O)NNC(=O)c1cccc(Br)c1,–,inactive: 4.7%
COc1cc2c(cc1NC(=O)COc1ccc(Br)c(C)c1)oc1ccccc12,–,inactive: -8.81%
CC(=O)Nc1ccc(Nc2nc3c(S(=O)(=O)c4ccc(C)c(C)c4)nnn3c3ccccc23)cc1,"inconclusive [inhibitor, partial curve]",–
COc1ccc(NC(=O)C2CCCN(S(=O)(=O)c3cnc[nH]3)C2)cc1 (centres undefined),"inconclusive [inhibitor, single point]",–
Cc1ccc2nc(N(Cc3cccnc3)C(=O)c3ccco3)sc2c1,–,inactive: -12.4%
COc1ccc(C2=CC(c3ccccc3Cl)n3nc(-c4ccc(C)cc4)nc3N2)cc1 (centres undefined),"inconclusive [inhibitor, partial curve, poor fit]",–
CC(C)C(=O)N(c1cc2sc(=O)oc2c2ccccc12)S(=O)(=O)c1cccs1,"inconclusive [inhibitor, partial curve]",–
N#Cc1ccccc1Sc1ccccc1C(=O)OCC(=O)NC1CCS(=O)(=O)C1 (centres undefined),"inconclusive [inhibitor, single point]",–
Cc1c(CCOC(=O)CC23CC4CC(CC(C4)C2)C3)sc[n+]1CC(=O)c1ccccc1,–,inactive: 9.57%
O=C(O)c1ccccc1C(=O)Nc1n[nH]c(=S)s1,"inconclusive [inhibitor, partial curve]",–
COc1ccc(NC(=O)C(NC(=O)Cc2cccs2)c2ccc(OC)cc2)cc1 (centres undefined),"inconclusive [inhibitor, partial curve]",–
N#C/C=C(/c1ccc(F)cc1)N1CCOCC1,"inconclusive [inhibitor, partial curve, poor fit]",–
CCCCC(=O)Nc1nc(C)c(-c2csc(Nc3cc(OC)ccc3OC)n2)s1,"inconclusive [activator, partial curve, poor fit]",–
CCOC(=O)c1ccc(NC(=O)CC2Nc3cccc4cccc(c34)NC2=O)cc1 (centres undefined),"inconclusive [inhibitor, single point]",–

Compound,Potency,"activity, negative = inhibition"
Cc1noc(C)c1S(=O)(=O)Nc1ccc(C(=O)Nc2ccc(C(C)C)cc2)cc1,"inconclusive [inhibitor, partial curve, poor fit]",–
C#CCSc1nc(-c2cccs2)ccc1C#N,"inconclusive [inhibitor, partial curve, poor fit]",–
O=C(O)CCCNC(=O)OCc1ccccc1,–,inactive: -11.5%
CCOC(=O)CCn1c(=O)c2cccn2c2cccnc21,–,inactive: -3.39%
CC1=NN(c2ccc(C)c(C)c2)C(=O)/C1=C\C=C\c1ccc([N+](=O)[O-])o1,"inconclusive [inhibitor, partial curve]",–
CCOCCCNC1=C(Cl)C(=O)c2ccccc2C1=O,"inconclusive [inhibitor, partial curve]",–
c1ccc(CNC2=NCCCC2)cc1,"inconclusive [inhibitor, full curve, poor fit]",–
CCOc1ccc(-c2c(C)nn3c(C)c(C(=O)Nc4cccc(Cl)c4C)cnc23)cc1OCC,"inconclusive [activator, full curve, poor fit]",–
COc1ccc(NS(=O)(=O)c2cc(N/C(=N\S(=O)(=O)c3ccccc3)c3ccc(F)cc3)ccc2Cl)cc1,"inconclusive [inhibitor, partial curve]",–
COCCN1Cc2cccc(C(=O)Nc3ccc(C(=O)OC)cc3)c2C1=O,"inconclusive [inhibitor, partial curve, poor fit]",–
CC(C)(C)NS(=O)(=O)c1ccc(NS(C)(=O)=O)cc1,"inconclusive [inhibitor, full curve, poor fit]",–
Cc1ccccc1NC(=O)c1cc2sccc2n1Cc1ccc(F)cc1,"inconclusive [inhibitor, single point]",–
CC(C)(C)C(=O)CSc1nc2ncc(Br)cc2[nH]1,–,inactive: -8.03%
Cc1cc(N2CC(C(=O)O)CC2=O)ccc1Br (centres undefined),–,inactive: -0.662%
Cc1ccccc1NC(=S)NCCc1ccccn1,–,inactive: -0.682%
Cc1ccc(N/N=C(\C#N)C(N)=S)c(C)c1,–,inactive: 1.21%
Cn1c(N)c(C(=O)COC(=O)C2(c3ccccc3F)CCCC2)c(=O)n(C)c1=O,"inconclusive [inhibitor, full curve]",–
COc1ccc(C2CC(=O)N3CN(c4ccc(C)c(Cl)c4)CSC3=C2C#N)cc1OC (centres undefined),active: 22.4 µM,–
COc1cccc(NC(=O)CCSc2nc(-c3ccco3)cc(C(F)(F)F)n2)c1,"inconclusive [inhibitor, partial curve]",–
COc1ccc(C2NC(=O)c3ccccc3N2)cc1OC (centres undefined),"inconclusive [inhibitor, single point]",–
Cc1ccc(S(=O)(=O)c2nnn3c2nc(NCc2ccccc2)c2sccc23)cc1,"inconclusive [inhibitor, partial curve, poor fit]",–
O=S(=O)(c1cc(Br)c(Br)s1)N1CCN(c2ccccc2)CC1,"inconclusive [inhibitor, single point]",–
N#CC(C#N)=CC1=C2OC(c3ccccc3)=CC(c3ccccc3)=C2CCC1,"inconclusive [activator, full curve, poor fit]",–
